Test results: PubChem BioAssay (NCATS)
Where “and” joins values, the source holds several entries; their conditions need not be identical. Equal values may be shown once. The inconclusive results got no clear call from the source; some entries with a clear call stand among them for comparison. Potencies beside an inconclusive call are fits to weak or partial responses and may not hold up. Calls of active or inactive are those of the source. Calls come from the whole dose curve; as a rule, active = well fitted curve in the direction sought with a large enough effect; inconclusive = small, poorly fitted or top-dose-only effect, or another doubt; inactive = no such curve, though single readings can be large; an effect the other way counts as inactive or inconclusive.

Columns and labels:
[1] = target: Rap guanine nucleotide exchange factor 3 (Homo sapiens) (UniProt O95398); assay: Confirmatory qHTS for antagonist of cAMP-regulated guanine nucleotide exchange factor 3 (EPAC1) (AID 1645880); conditions: EPAC1 Rap1B-BODIPY-GDP exchange, fluorescence; activity, negative = inhibition: at 115 µM (top of the series); note: nearly all actives have a fitted effect of over 55% in size;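 for activity, negative = inhibition: plate controls were DMSO only for no effect and full effect of the ATA control for full effect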
Sequence of UniProt O95398 (O95398 whole entry, looked up): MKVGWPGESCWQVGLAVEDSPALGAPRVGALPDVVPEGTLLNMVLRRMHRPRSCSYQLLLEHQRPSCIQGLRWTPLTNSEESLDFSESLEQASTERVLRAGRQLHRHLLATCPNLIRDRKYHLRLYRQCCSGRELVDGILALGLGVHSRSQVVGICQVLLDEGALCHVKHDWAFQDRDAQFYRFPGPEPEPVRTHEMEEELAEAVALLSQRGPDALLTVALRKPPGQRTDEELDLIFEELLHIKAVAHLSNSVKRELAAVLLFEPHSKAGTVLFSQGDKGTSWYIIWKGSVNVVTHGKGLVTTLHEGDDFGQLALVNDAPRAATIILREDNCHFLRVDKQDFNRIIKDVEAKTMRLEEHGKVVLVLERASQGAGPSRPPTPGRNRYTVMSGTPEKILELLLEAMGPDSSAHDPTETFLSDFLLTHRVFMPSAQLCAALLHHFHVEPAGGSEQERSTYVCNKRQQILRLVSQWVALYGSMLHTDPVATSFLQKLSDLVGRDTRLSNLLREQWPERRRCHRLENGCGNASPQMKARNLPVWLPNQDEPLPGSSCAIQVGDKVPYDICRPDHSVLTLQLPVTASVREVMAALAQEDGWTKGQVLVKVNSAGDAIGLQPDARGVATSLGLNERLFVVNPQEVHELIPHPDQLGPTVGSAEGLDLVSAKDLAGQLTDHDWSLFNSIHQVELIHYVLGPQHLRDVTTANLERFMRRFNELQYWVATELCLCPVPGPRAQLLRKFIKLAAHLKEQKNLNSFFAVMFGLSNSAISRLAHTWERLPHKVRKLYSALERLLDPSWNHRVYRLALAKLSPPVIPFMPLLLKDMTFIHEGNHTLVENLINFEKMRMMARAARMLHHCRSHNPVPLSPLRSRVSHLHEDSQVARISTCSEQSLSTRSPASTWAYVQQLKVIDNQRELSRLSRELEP
Outline: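 Released BODIPY-GDP fluoresces less than Rap1-bound BODIPY-GDP; the signal is followed at 480/540 nm at 5-min intervals over 30 min, after 5 min at room temperature. Reactions contain 100 nM EPAC1, 250 nM RAP1B-BODIPY-GDP and 50 uM GDP; results are normalized to ATA and DMSO.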

[2] = target: Rap guanine nucleotide exchange factor 3 (Homo sapiens) (UniProt O95398); assay: Counterscreen qHTS for agonist of cAMP-regulated guanine nucleotide exchange factor 3 (EPAC1) (AID 1645889); conditions: EPAC1 Rap1B-BODIPY-GDP exchange, fluorescence; activation: at 154 µM (top of the series) unless noted; note: nearly all actives have a fitted effect of over 40% in size; for activation: % of control where 0% means no effect
Outline: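 Rap1B–BODIPY-GDP (250 nM) with 50 uM GDP; compounds pin-transferred to 9.74 nM–152 uM final (activator) or from 7.32 nM upwards (inhibitor). Fluorescence Ex/Em 480/540 nm read at 5 and 30 min, then after adding cAMP or buffer, at room temperature.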
Potency is the fitted concentration of half-maximal effect; tags give direction and shape of the fitted curve.

Compound | Potency [1] | activation [2] | Potency [2] | activity, negative = inhibition [1]
Cc1ccc(-c2cc(C(=O)Nc3ccc(S(=O)(=O)Nc4onc(C)c4C)cc3)c3ccccc3n2)cc1 | inconclusive: 56.2 µM [inhibitor, partial curve, poor fit] | inconclusive: 41.7% [activator] [at 30.8 µM] |  | 
COc1ccccc1Nc1cc2cc(Br)ccc2c(=O)[nH]1 | inconclusive: 37.9 µM [inhibitor, partial curve] |  | inconclusive: 7.94 µM [activator, partial curve] | 
CN1CCN(c2cc(N3CCN(C(=O)c4ccco4)CC3)c3c4c(onc24)-c2ccccc2C3=O)CC1 | inconclusive: 53.6 µM [inhibitor, partial curve, poor fit] | inconclusive: 27.4% [activator] |  | 
O=S1(=O)CCOC[C@H](CC2CCCCC2)N1Cc1cccc(C(F)(F)F)c1 | inconclusive: 35.5 µM [inhibitor, partial curve] |  | inconclusive: 8.91 µM [activator, partial curve, poor fit] | 
CCc1ccc(NC(=O)CSc2nnc(Cc3cccn3C)n2-c2ccc(OC)cc2)cc1 | inactive | inconclusive: 41.1% [activator] [at 30.8 µM] |  | 
Cc1ccc(CNc2nc(NCc3ccccc3)nc3ccsc23)c(C)c1 | inconclusive: 19 µM [inhibitor, full curve, poor fit] |  | inconclusive: 0.0708 µM [activator, full curve, poor fit] | 
Oc1ccc(-c2nc(-c3ccc(O)c(O)c3)cs2)cc1 | inconclusive: 75.7 µM [inhibitor, partial curve] |  | inconclusive: 7.94 µM [activator, partial curve, poor fit] | 
Cc1ccc(/C=C/C(=O)c2ccccc(=O)c2O)c(C)c1 | active: 44.7 µM | inactive: 23.8% [at 30.8 µM] |  | 
CCC/C=C/c1ccc(CN2C(CC(C)C)C(=O)N(Cc3cn(Cc4ccco4)nn3)CCS2(=O)=O)cc1 (stereo not drawn) | inconclusive: 60.1 µM [inhibitor, partial curve] |  | inactive | 
COc1cccc(CNC(=O)CCC(=O)N2CC(C)Sc3ccccc32)c1 (stereo not drawn) | inactive | inconclusive: 34.4% [activator] |  | 
Cc1ccc(C)c(Cn2c(CN(C)Cc3ccccc3)nc3c2c(=O)n(C)c(=O)n3C)c1 | inconclusive: 60.1 µM [inhibitor, partial curve, poor fit] | inconclusive: 34% [activator] |  | 
COc1cc(CC(=O)Nc2ccccc2N2CCCCC2)cc(OC)c1OC | inactive |  | inactive | 
COc1ccc(C(CC(=O)N2CCCC2)c2c(OC)cc(OC)c3c(-c4ccccc4)cc(=O)oc23)cc1 (stereo not drawn) | inconclusive: 42.6 µM [inhibitor, partial curve] |  | inconclusive: 14.1 µM [activator, partial curve, poor fit] | 
O=C(Cc1ccc(Cl)cc1)Nc1cccc(C(=O)Nc2ccccc2C(=O)O)c1 | inconclusive: 56.2 µM [inhibitor, partial curve, poor fit] | inactive: 2.92% [at 30.8 µM] |  | 
COc1ccc(OC)c(C(=O)c2coc3cc(Br)c(O)c(Br)c23)c1 | inconclusive: 42.6 µM [inhibitor, partial curve] |  | inconclusive: 7.08 µM [activator, partial curve, poor fit] | 
CCc1ccc(N=Nc2ccc(O)c3[nH]cnc23)cc1 | inconclusive: 84.9 µM [inhibitor, partial curve, poor fit] |  | inactive | 
CC(=O)N1N=C(c2ccc(Cl)cc2)CC1c1ccc([N+](=O)[O-])cc1 (stereo not drawn) | inconclusive: 31.6 µM [inhibitor, partial curve] |  | inconclusive: 6.31 µM [activator, partial curve, poor fit] | 
CC(C)C1CC2=C(C(=O)OC(C)(C)O2)C(c2ccc(F)cc2)O1 (stereo not drawn) | inactive |  | inconclusive: 0.158 µM [activator, full curve, poor fit] | 
Cc1cccn2c(=O)c3cc(C#N)c(=NC(=O)c4ccccc4)n(Cc4ccco4)c3nc12 | inconclusive: 35.5 µM [inhibitor, partial curve] | inconclusive: 49.5% [activator] [at 30.8 µM] |  | 
CCOc1cccc(CNc2ccc(O)cc2)c1OCc1ccc(Cl)cc1 | inconclusive: 42.6 µM [inhibitor, partial curve] |  | inconclusive: 35.5 µM [activator, partial curve, poor fit] | 
CCOc1ccc(C(=O)NCC(=O)NCC(c2ccco2)N2CCCCC2)cc1OCC (stereo not drawn) | inactive |  | inconclusive: 0.0398 µM [activator, full curve, poor fit] | 
CCOC(=O)c1ccccc1-c1csc(NS(=O)(=O)c2ccc(Cl)cc2)n1 | active: 31.6 µM |  | inconclusive: 0.398 µM [activator, full curve, poor fit] | 

Compound | Potency [1] | activation [2] | Potency [2] | activity, negative = inhibition [1]
CCc1ccc([C@@H]2CC=C(C(=O)O)[C@H](c3ccc(C(C)(C)C)cc3)N2S(=O)(=O)c2ccc(C)cc2)cc1 | active: 37.9 µM |  | inactive | 
O=C(O)c1ccc(N2C(=O)CC(SC(=NCc3ccc4c(c3)OCO4)Nc3ccc(F)cc3)C2=O)cc1 (stereo not drawn) | inconclusive: 95.3 µM [inhibitor, partial curve, poor fit] |  | inconclusive: 1.12 µM [activator, full curve, poor fit] | 
O=C(O)c1ccn2c(C(=O)c3ccc(Cl)cc3)c(-c3ccccc3)cc2c1 | inconclusive: 84.9 µM [inhibitor, partial curve] | inconclusive: 19.8% [activator] |  | 
O=C1NC[C@H](Cc2ccc(O)cc2)N(C[C@@H]2CCCN2C[C@H](Cc2ccc(O)cc2)N2C[C@H](Cc3ccccc3)N(CC3CCCCC3)C(=O)C2=O)C1=O | inconclusive: 56.2 µM [inhibitor, partial curve, poor fit] | inactive: 17.8% [at 30.8 µM] |  | 
COc1cc(O)c(C(C)=O)c2c1C=CC(C)(C)O2 | inconclusive: 42.6 µM [inhibitor, partial curve, poor fit] |  | inconclusive: 0.112 µM [activator, full curve, poor fit] | 
CCOC(=O)N1CCC(Nc2nc3ccccc3n3cnnc23)CC1 | inconclusive: 63.1 µM [inhibitor, partial curve, poor fit] | inactive: 4.26% [at 30.8 µM] |  | 
Oc1ccc2ccccc2c1/C=N/c1nc2c(s1)CCCC2 | inconclusive: 67.5 µM [inhibitor, partial curve] |  | inconclusive: 112 µM [activator, partial curve, poor fit] | 
Cc1ccc(S(=O)(=O)N2[C@@H](c3ccc(Cl)cc3)C(C(=O)O)=CC[C@H]2c2ccc(C(C)C)cc2)cc1 | active: 42.6 µM |  | inactive | 
Cc1c(Cl)ccc2c(C(=O)O)cc(-c3ccccc3)nc12 | inactive | inconclusive: 27.5% [activator] [at 30.8 µM] |  | 
C/C(=N\NC(=O)c1ccc(O)cc1)c1cccc(NC(=O)c2ccc(Cl)cc2)c1 | inconclusive: 84.9 µM [inhibitor, partial curve] |  | inconclusive: 79.4 µM [activator, partial curve, poor fit] | 
CCOc1cccc(CNc2ccc(O)cc2)c1OCc1ccccc1Cl | inconclusive: 37.9 µM [inhibitor, partial curve] and inconclusive: 84.9 µM [inhibitor, single point] |  | active: 44.7 nM and active: 79.4 µM | 
Cc1ccc(NS(=O)(=O)c2ccc(C(=O)N3CC(C)CC(C)C3)cc2)cc1 (stereo not drawn) | inconclusive: 75.7 µM [inhibitor, partial curve] |  | inactive | 
O=C(COC(=O)COc1ccc(Cl)cc1Cl)NC1CCCC1 | inactive | inactive: -1.05% [at 30.8 µM] |  | 
O=C(O)c1ccccc1NC(c1ccccc1)c1ccc(Cl)cc1 (stereo not drawn) | inconclusive: 84.9 µM [inhibitor, partial curve] |  | inactive | 
Cc1ccc(-c2cn3c(n2)sc2cc(C(=O)NCCC4=CCCCC4)ccc23)c(C)c1 | inactive | inconclusive: 40.9% [activator] |  | 
COc1ccccc1Cc1c(-c2ccco2)nc2cc(C)c(Br)c(C)n12 | inconclusive: 35.5 µM [inhibitor, partial curve] | inactive: 13.6% [at 30.8 µM] |  | 
O=C(NCCc1ccccc1)c1ccc(Cn2c(SCc3cccc(F)c3)nc3cccnc32)cc1 |  | inconclusive: 56% [activator] |  | inconclusive: -34.3% [inhibitor]
Cc1[nH]n(-c2ccccc2)c(=O)c1C(c1cccc([N+](=O)[O-])c1O)c1c(C)[nH]n(-c2ccccc2)c1=O | active: 44.7 µM |  | inconclusive: 2 µM [activator, partial curve, poor fit] | 
Cc1cc(N2CCOCC2)ccc1/C=C1/SC(=O)NC1=O | inconclusive: 60.1 µM [inhibitor, partial curve] | inconclusive: 35.7% [activator] |  | 
CCOc1ccc2nc(S(=O)(=O)NC(=O)C3(C)CCN3C(=O)CCc3cccs3)sc2c1 (stereo not drawn) | inactive | inactive: 4.36% [at 30.8 µM] |  | 
O=C(O)C(c1ccccc1)N1C(=O)/C(=C\c2ccc(O)c(O)c2)SC1=S (stereo not drawn) | active: 6.75 µM |  | inactive | 
CSCCC(NS(=O)(=O)c1ccc2c(c1)oc(=O)n2C)C(=O)NC1CCCc2ccccc21 (stereo not drawn) | inactive |  | inactive | 
